Results taken from PubChem BioAssay AID686979 (National Center for Advancing Translational Sciences (NCATS), 2013).
About 50,000 (12%) of roughly 420,000 compounds were called active. Inconclusive means that the source gave no clear call. Such entries were picked first, then a sample of the others. Calls come from the whole dose curve; as a rule, active = well fitted inhibition curve with a large enough effect; inconclusive = small, poorly fitted or top-dose-only effect; inactive = flat fitted curve, though single readings scatter. Potencies of inconclusive entries are left out as doubtful fits.

Assay: qHTS for Inhibitors of human tyrosyl-DNA phosphodiesterase 1 (TDP1): qHTS in cells in presence of CPT; note: nearly all actives have a fitted effect of over 55% in size
Conditions: chicken DT40 Tdp1-/-;hTDP1 cells + 20 nM CPT, ATP luminescence, 48 h; activity change, negative = growth inhibition: at 46.2 µM (top of the series)
Method in brief: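 Chicken DT40 Tdp1-/- cells stably complemented with human TDP1 were seeded at 400 cells/well in medium containing 20 nM camptothecin, exposed to pin-transferred compounds, and grown at 37 °C for at least 48 hr. Viability was read as ATP luminescence.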
% is set by controls: 0 for no effect and ±100 for the full control effect; potency is the fitted concentration of half-maximal effect; tags give direction and shape of the fitted curve.

| Structure (SMILES) | Potency | activity change, negative = growth inhibition |
| --- | --- | --- |
| CCCNC(=O)C1(C)CCN(Cc2csc(-c3ccc(Cl)cc3)n2)C1 (stereo not given) | active: 23.1 µM |  |
| Cc1ccc2c(c1)N(C(=O)CCC(=O)N1CCN(c3ccccn3)CC1)CCO2 | inactive |  |
| COCc1cc(C)nc2sc(C(=O)NC3CCCCC3)c(N)c12 | inactive |  |
| CC1(C)C2CCC1(C)C(OC(=O)C[n+]1ccccc1)C2 (stereo not given) | inconclusive [inhibitor, single point] |  |
| CCc1nc2c(OCc3ccc4c(c3)OCO4)cccn2c1N(C=O)Cc1ccc(OC)cc1 | inconclusive [inhibitor, single point] |  |
| COc1ccc(OC)c(S(=O)(=O)NC2CCN(Cc3ccccc3)CC2)c1 | inconclusive [inhibitor, single point] |  |
| CC(C)C(=O)Nc1ncc(Cc2cccc(Cl)c2)s1 | inconclusive [inhibitor, single point] |  |
| CC(=O)N1CC(C)Sc2ccc(S(=O)(=O)NCc3ccc(Cl)cc3)cc21 (stereo not given) | inconclusive [inhibitor, single point] |  |
| Nc1cc(N)cc(Cc2ccccc2)c1 | inactive |  |
| COc1ccc(OC)c2c1cc(C(=O)N[C@@H](C)C(=O)N[C@@H](C(=O)O)c1ccccc1)n2C | inactive |  |
| CCOc1cc(N2CCOCC2)c(OCC)cc1NC(=O)CSc1nnc(N)s1 | inconclusive [inhibitor, single point] |  |
| CCOC(=O)CN(C)Cc1cn[nH]c1-c1ccc2cc(OC)ccc2c1 | active: 16.4 µM |  |
| CCOC(=O)c1ccc(-c2ccc(C3Nc4ccccc4C(=O)N3O)o2)cc1 (stereo not given) | inconclusive [inhibitor, single point] |  |
| CCn1c(O)c2ccc(C(=O)N=NC(=O)c3cccnc3)cc2c1O | inactive |  |
| C/C(=N\Nc1nc(-c2cc(C)ccc2C)cs1)c1cc2c(ccc3ccccc32)oc1=O | inconclusive [inhibitor, single point] |  |
| CC1(C)CC(=O)C2=C(C1)N(CCN1CCOCC1)C1=C(C(=O)CC(C)(C)C1)C2c1cccc(F)c1 | inactive |  |
| COc1ccc(Oc2ccc(C(F)(F)F)cc2NC(=O)c2ccc(F)cc2)cc1 | inactive |  |
| N#C/C(=C\c1c(N2CCC(C(N)=O)CC2)nc2ccccn2c1=O)S(=O)(=O)c1ccc(Cl)cc1 | inactive |  |
| O=C(Nc1nccs1)c1ccc(-c2ccccc2Cl)o1 | inconclusive [inhibitor, single point] |  |
| CCOc1ccc(S(=O)(=O)N(CC)CC(=O)N2CCCC2)cc1C | inconclusive [inhibitor, single point] |  |
| CNc1cncc(-c2cc(OC)c(OC)c(OC)c2)n1 | inconclusive [inhibitor, partial curve] |  |
| CN1CCN(CC(O)COC(c2ccc(Cl)cc2)c2ccc(Cl)cc2)CC1 (stereo not given) | inconclusive [inhibitor, single point] |  |
| CCOC(=O)c1c(C)nc2sc(C(N)=O)c(N)c2c1-c1ccc(OC)cc1 | inconclusive [inhibitor, single point] |  |

| Structure (SMILES) | Potency | activity change, negative = growth inhibition |
| --- | --- | --- |
| CN(C)CCc1c[nH]c2ccc(CS(=O)(=O)N3CCCC3)cc12 | inactive |  |
| C[C@@H]1CN([C@H](C)CO)C(=O)c2cc(NC(=O)Nc3ccc(F)cc3)ccc2O[C@H]1CN(C)C(=O)Nc1ccc(C(F)(F)F)cc1 | active: 16.4 µM |  |
| C/C(=N\S(=O)(=O)c1ccc(C)cc1)Nc1cc(C(C)C)c(O)cc1C | inconclusive [inhibitor, partial curve] |  |
| COc1ccccc1CN(C)C(=O)CN1CCN(C(=O)c2cccs2)CC1 | inconclusive [inhibitor, single point] |  |
| COc1ccc(CCn2c(NN)nc3c2c(=O)[nH]c(=O)n3C)cc1 | active: 4.61 µM |  |
| CCN(C[C@H]1N[C@@](CC)(C(=O)OC)[C@H]2C(=O)N(Cc3ccccc3)C(=O)[C@@H]12)S(=O)(=O)c1ccc(F)cc1 | inconclusive [inhibitor, single point] |  |
| COc1ccc(-c2nn(-c3ccccc3C)cc2CNC(C)Cn2cncn2)cc1F (stereo not given) |  | inconclusive: -31% [inhibitor] |
| CC(C)C(=O)c1cc2c(cc1NC(=O)c1cccs1)OCCO2 | inconclusive [inhibitor, single point] |  |
| Cc1ccc2nc3c(cc(C(=O)NCc4ccco4)c(=N)n3C(C)C)c(=O)n2c1 | inactive |  |
| Cc1ccc(NC(=O)CC2S/C(=N/N=C3/NC(=O)CS3)NC2=O)cc1 (stereo not given) | inactive |  |
| O=C1NC(Cc2ccccc2)c2nc3ccc(F)cc3c(=O)n2-c2ncccc21 (stereo not given) | inconclusive [inhibitor, single point] |  |
| COCOCCn1cc(CN2CCS(=O)(=O)N(Cc3ccc(-c4ccc(OC)cc4)cc3)C(C)C2=O)nn1 (stereo not given) | active: 20.6 µM |  |
| Cc1ccc(C2(C)NC(=O)N(CC(=O)Nc3cc(S(=O)(=O)N4CCOCC4)ccc3C)C2=O)cc1 (stereo not given) | inconclusive [inhibitor, single point] |  |
| CCc1cc2c(=O)c(-c3nc4ccccc4n3C)coc2c(CN2CCC(C)CC2)c1O | inconclusive [inhibitor, single point] |  |
| CCC1(c2ccc(F)cc2)NC(=O)N(CC(=O)NCc2ccc(F)cc2)C1=O (stereo not given) | inactive |  |
| CCN(CC)c1ccc2c(Cl)cc(=O)oc2c1 | active: 23.1 µM |  |
| CC(C)c1cc(C(=O)NCCc2cccs2)c(N)s1 | inconclusive [inhibitor, single point] |  |
| NC(=O)c1nsc(C(=O)N(c2ccc(F)cc2)C(C(=O)NC2CCCC2)c2ccncc2)c1N (stereo not given) | inactive |  |
| COc1ccc(NS(=O)(=O)c2ccc(C)c(NC(=O)NC3CCCCC3)c2)cc1 | inconclusive [inhibitor, single point] |  |
| Cc1noc(C)c1S(=O)(=O)NCc1ccc2c(c1)OCO2 | inactive |  |
| COc1ccc(C(=O)NC(=S)NC2CCCCC2)cc1 | inconclusive [inhibitor, single point] |  |
| CCn1c(CC(=O)Nc2ccc(F)cc2)nnc1SCC(=O)NC1=NCCS1 | inconclusive [inhibitor, partial curve] |  |
